# Reference: the supplement of paper PMC8728848
# This is one part of the list.
# Tests used:
# Experiment in all cases: glycan array binding signal (z-score within array); higher = stronger binding
# Details in all cases: glycan notation: IUPAC condensed, linker removed
# [1] = target: GlcNAc(b1-4)GlcNAc(b1-4)GlcNAc(b1-4)GlcNAc(b1-4)GlcNAc
# Procedure, shortened: (§1)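 From the Consortium for Functional Glycomics database, 3228 arrays were curated, keeping only those whose protein sequence was available. Binding is given as a within-array Z-score averaged across arrays sharing a protein sequence and across linkers. Negative Z-scores can be read as non-binding.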
# [2] = target: GlcNAc(b1-4)GlcNAc(b1-4)GlcNAc(b1-4)GlcNAc(b1-4)GlcNAc(b1-4)GlcNAc
# Procedure, shortened: as §1
# [3] = target: GlcNAc(b1-4)[GlcNAc(b1-6)]GalNAc
# Procedure, shortened: as §1
# [4] = target: GlcNAc(b1-6)Gal(b1-4)GlcNAc
# Procedure, shortened: as §1
# GlcNAc(b1-6)GalNAc = target: GlcNAc(b1-6)GalNAc
# Procedure, shortened: as §1
# [5] = target: GlcNAc6S(b1-3)Gal(b1-4)GlcNAc
# Procedure, shortened: as §1
# Kdn(a2-3)Gal(b1-3)GalNAc = target: Kdn(a2-3)Gal(b1-3)GalNAc
# Procedure, shortened: as §1
# Kdn(a2-3)Gal(b1-3)GlcNAc = target: Kdn(a2-3)Gal(b1-3)GlcNAc
# Procedure, shortened: as §1
# Kdn(a2-3)Gal(b1-4)Glc = target: Kdn(a2-3)Gal(b1-4)Glc
# Procedure, shortened: as §1
# Kdn(a2-3)Gal(b1-4)GlcNAc = target: Kdn(a2-3)Gal(b1-4)GlcNAc
# Procedure, shortened: as §1
# [6] = target: Kdn(a2-3)Gal(b1-4)[Fuc(a1-3)]GlcNAc
# Procedure, shortened: as §1
# Kdn(a2-6)Gal(b1-4)GlcNAc = target: Kdn(a2-6)Gal(b1-4)GlcNAc
# Procedure, shortened: as §1
# [7] = target: Man(a1-2)Man(a1-2)Man(a1-3)Man
# Procedure, shortened: as §1
# [8] = target: Man(a1-2)Man(a1-2)Man(a1-6)[Man(a1-3)]Man
# Procedure, shortened: as §1
# Man(a1-2)Man(a1-3)Man = target: Man(a1-2)Man(a1-3)Man
# Procedure, shortened: as §1
# [9] = target: Man(a1-2)Man(a1-3)[Man(a1-2)Man(a1-6)]Man
# Procedure, shortened: as §1
# [10] = target: Man(a1-2)Man(a1-3)[Man(a1-2)Man(a1-6)]Man(a1-6)[Man(a1-2)Man(a1-2)Man(a1-3)]Man
# Procedure, shortened: as §1
# [11] = target: Man(a1-2)Man(a1-3)[Man(a1-2)Man(a1-6)]Man(a1-6)[Man(a1-2)Man(a1-2)Man(a1-3)]Man(b1-4)GlcNAc(b1-4)GlcNAc
# Procedure, shortened: as §1
# [12] = target: Man(a1-2)Man(a1-3)[Man(a1-6)]Man(a1-6)[Man(a1-2)Man(a1-3)]Man(b1-4)GlcNAc(b1-4)GlcNAc
# Procedure, shortened: as §1
# [13] = target: Man(a1-2)Man(a1-6)[Man(a1-3)]Man(a1-6)[Man(a1-2)Man(a1-2)Man(a1-3)]Man
# Procedure, shortened: as §1
# [14] = target: Man(a1-2)Man(a1-6)[Man(a1-3)]Man(a1-6)[Man(a1-2)Man(a1-2)Man(a1-3)]Man(b1-4)GlcNAc(b1-4)GlcNAc
# Procedure, shortened: as §1
# Man(a1-3)[Man(a1-6)]Man = target: Man(a1-3)[Man(a1-6)]Man
# Procedure, shortened: as §1
# [15] = target: Man(a1-3)[Man(a1-6)]Man(a1-6)[Man(a1-2)Man(a1-3)]Man(b1-4)GlcNAc(b1-4)GlcNAc
# Procedure, shortened: as §1
# [16] = target: Man(a1-3)[Man(a1-6)]Man(a1-6)[Man(a1-3)]Man
# Procedure, shortened: as §1
# [17] = target: Man(a1-3)[Man(a1-6)]Man(a1-6)[Man(a1-3)]Man(b1-4)GlcNAc(b1-4)GlcNAc
# Procedure, shortened: as §1
# [18] = target: Man(a1-3)[Man(a1-6)]Man(b1-4)GlcNAc(b1-4)GlcNAc
# Procedure, shortened: as §1
# [19] = target: Man(a1-3)[Man(a1-6)]Man(b1-4)GlcNAc(b1-4)[Fuc(a1-6)]GlcNAc
# Procedure, shortened: as §1
# Man(a1-6)Man = target: Man(a1-6)Man
# Procedure, shortened: as §1
# Man(b1-4)GlcNAc = target: Man(b1-4)GlcNAc
# Procedure, shortened: as §1
# MurNAc(b1-4)GlcNAc = target: MurNAc(b1-4)GlcNAc
# Procedure, shortened: as §1
# Neu5Ac(a2-3)Gal = target: Neu5Ac(a2-3)Gal
# Procedure, shortened: as §1
# [20] = target: Neu5Ac(a2-3)Gal(b1-3)GalNAc
# Procedure, shortened: as §1
# [21] = target: Neu5Ac(a2-3)Gal(b1-3)GalNAc(b1-3)Gal(a1-4)Gal(b1-4)Glc
# Procedure, shortened: as §1
# [22] = target: Neu5Ac(a2-3)Gal(b1-3)GalNAc(b1-4)Gal(b1-4)Glc
# Procedure, shortened: as §1
# [23] = target: Neu5Ac(a2-3)Gal(b1-3)GalNAc(b1-4)[Neu5Ac(a2-3)]Gal(b1-4)Glc
# Procedure, shortened: as §1
# [24] = target: Neu5Ac(a2-3)Gal(b1-3)GalNAc(b1-4)[Neu5Ac(a2-8)Neu5Ac(a2-3)]Gal(b1-4)Glc
# Procedure, shortened: as §1
# [25] = target: Neu5Ac(a2-3)Gal(b1-3)GalNAc6S
# Procedure, shortened: as §1
# [26] = target: Neu5Ac(a2-3)Gal(b1-3)GlcNAc
# Procedure, shortened: as §1
# [27] = target: Neu5Ac(a2-3)Gal(b1-3)GlcNAc(b1-2)Man
# Procedure, shortened: as §1
# [28] = target: Neu5Ac(a2-3)Gal(b1-3)GlcNAc(b1-2)Man(a1-3)[GlcNAc(b1-4)][Neu5Ac(a2-3)Gal(b1-3)GlcNAc(b1-2)Man(a1-6)]Man(b1-4)GlcNAc(b1-4)GlcNAc
# Procedure, shortened: as §1
# [29] = target: Neu5Ac(a2-3)Gal(b1-3)GlcNAc(b1-2)Man(a1-3)[Neu5Ac(a2-3)Gal(b1-3)GlcNAc(b1-2)Man(a1-6)]Man(b1-4)GlcNAc(b1-4)GlcNAc
# Procedure, shortened: as §1
# [30] = target: Neu5Ac(a2-3)Gal(b1-3)GlcNAc(b1-2)[Neu5Ac(a2-3)Gal(b1-3)GlcNAc(b1-4)]Man(a1-6)[Neu5Ac(a2-3)Gal(b1-3)GlcNAc(b1-2)Man(a1-3)]Man(b1-4)GlcNAc(b1-4)GlcNAc
# Procedure, shortened: as §1
# [31] = target: Neu5Ac(a2-3)Gal(b1-3)GlcNAc(b1-3)Gal(b1-3)GlcNAc
# Procedure, shortened: as §1
# [32] = target: Neu5Ac(a2-3)Gal(b1-3)GlcNAc(b1-3)Gal(b1-4)GlcNAc
# Procedure, shortened: as §1
# [33] = target: Neu5Ac(a2-3)Gal(b1-3)GlcNAc(b1-3)GalNAc
# Procedure, shortened: as §1
binder,measurement,setting,value
"PVL (Psathyrella velutina), Q309D1_9AGAR (protein) MSVVVISQALPVPTRIPGVADLVGFGNGGVYIIRNSLLIQVVKVINNFGYDAGGWRVEKHVRLLADTTGDNQPDVVGFGENGVWISTNNGNNTFVDPPKMVLANFAYAAGGWRVEKHIRFMADLRKTGRADIVGFGDGGIYISRNNGGGQFAPAQLALNNFGYAQGWRLDRHLRFLADVTGDGLLDVVGFGENQVYIARNSGNGTFQPAQAVVNNFCIGAGGWTISAHPRVVADLTGDRKADILGFGVAGVYTSLNNGNGTFGAVNLVLKDFGVNSGWRVEKHVRCVSSLTNKKVGDIIGFGDAGVYVALNNGNGTFGPVKRVIDNFGYNQGWRVDKHPRFVVDLTGDGCADIVGFGENSVWACMNKGDGTFGPIMKLIDDMTVSKGWTLQKTVRYAANLYL",glycan array binding signal (z-score),[1],0.647
same,glycan array binding signal (z-score),[2],0.53
same,glycan array binding signal (z-score),[3],0.637
same,glycan array binding signal (z-score),[4],0.714
same,glycan array binding signal (z-score),GlcNAc(b1-6)GalNAc,0.215
same,glycan array binding signal (z-score),[5],-0.338
same,glycan array binding signal (z-score),Kdn(a2-3)Gal(b1-3)GalNAc,-0.353
same,glycan array binding signal (z-score),Kdn(a2-3)Gal(b1-3)GlcNAc,-0.359
same,glycan array binding signal (z-score),Kdn(a2-3)Gal(b1-4)Glc,-0.365
same,glycan array binding signal (z-score),Kdn(a2-3)Gal(b1-4)GlcNAc,-0.363
same,glycan array binding signal (z-score),[6],-0.363
same,glycan array binding signal (z-score),Kdn(a2-6)Gal(b1-4)GlcNAc,-0.356
same,glycan array binding signal (z-score),[7],-0.369
same,glycan array binding signal (z-score),[8],-0.366
same,glycan array binding signal (z-score),Man(a1-2)Man(a1-3)Man,-0.358
same,glycan array binding signal (z-score),[9],-0.376
same,glycan array binding signal (z-score),[10],-0.367
same,glycan array binding signal (z-score),[11],-0.373
same,glycan array binding signal (z-score),[12],-0.32
same,glycan array binding signal (z-score),[13],-0.354
same,glycan array binding signal (z-score),[14],-0.37
same,glycan array binding signal (z-score),Man(a1-3)[Man(a1-6)]Man,-0.366
same,glycan array binding signal (z-score),[15],-0.318
same,glycan array binding signal (z-score),[16],-0.36
same,glycan array binding signal (z-score),[17],-0.36
same,glycan array binding signal (z-score),[18],-0.241
same,glycan array binding signal (z-score),[19],-0.354
same,glycan array binding signal (z-score),Man(a1-6)Man,-0.36
same,glycan array binding signal (z-score),Man(b1-4)GlcNAc,-0.358
same,glycan array binding signal (z-score),MurNAc(b1-4)GlcNAc,0.43
same,glycan array binding signal (z-score),Neu5Ac(a2-3)Gal,-0.341
same,glycan array binding signal (z-score),[20],-0.285
same,glycan array binding signal (z-score),[21],-0.34
same,glycan array binding signal (z-score),[22],-0.361
same,glycan array binding signal (z-score),[23],-0.206
same,glycan array binding signal (z-score),[24],-0.358
same,glycan array binding signal (z-score),[25],-0.235
same,glycan array binding signal (z-score),[26],-0.331
same,glycan array binding signal (z-score),[27],-0.316
same,glycan array binding signal (z-score),[28],-0.365
same,glycan array binding signal (z-score),[29],-0.362
same,glycan array binding signal (z-score),[30],-0.062
same,glycan array binding signal (z-score),[31],-0.215
same,glycan array binding signal (z-score),[32],-0.208
same,glycan array binding signal (z-score),[33],-0.336
